# The supplement of paper PMC12217912
# The list shows a part of the results. Sequences were assembled here from the parent chain. Values near 0.05 are background.
# B1: TEV protease; numbered along this chain (parent)
# chain: MGESLFKGPRDYNPISSSICHLTNESDGHTTSLYGIGFGPFIITNKHLFRRNNGTLVVQSLHGVFKVKDTTTLQQHLVDGRDMIIIRMPKDFPPFPQKLKFREPQREERICLVTTNFQTKSMSSMVSDTSCTFPSGDGIFWKHWIQTKDGQCGSPLVSTRDGFIVGIHSASNFTNTNNYFTSVPKNFMELLTNQEAQQWVSGWRLNADSVLWGGHKVFMVKPEEPFQPVKEATQL
# Variants of: B1
# Experiment: raw area under fraction-flipped curve 0-4 h after induction (AUC4h, not background-subtracted), DNA-recorder readout of cleavage of the substrate (dimensionless); higher = more cleavage of the substrate by the protease variant
# Settings: temperature: 34 °C; time window: 0-4 h after rhamnose induction
# Procedure: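 In vivo DNA recorder in E. coli TOP10(DE3) ΔrhaA at 34 °C. Each TEVp single-site mutant (parent TEVp 0) is paired with a single-site variant of the 7-mer TEVs (canonical ENLYFQ|S). The substrate sits between flexible linkers in a Bxb1-sfGFP-TEVs-SsrA fusion, so cleavage stabilises Bxb1 and speeds flipping of a recombination array, read by NGS. The value is the raw area under the fraction-flipped curve over 0-4 h after rhamnose induction (AUC4h), with ≥20 reads per time point. It is not background-subtracted; inactive controls average about 0.047.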
# 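Note: Bxb1 expression induced with 0.2% (w/v) L-rhamnose at OD600 near 0.5, cultures sampled hourly, flipped fraction per protease–substrate barcode pair counted by paired-end Illumina sequencing.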
variant,measurement,value
MGESLFKGPRDYNPISSSICHQTNESDGHTTSLYGIGFGPFIITNKHLFRRNNGTLVVQSLHGVFKVKDTTTLQQHLVDGRDMIIIRMPKDFPPFPQKLKFREPQREERICLVTTNFQTKSMSSMVSDTSCTFPSGDGIFWKHWIQTKDGQCGSPLVSTRDGFIVGIHSASNFTNTNNYFTSVPKNFMELLTNQEAQQWVSGWRLNADSVLWGGHKVFMVKPEEPFQPVKEATQL [L22Q],area with substrate EALYFQS,0.0421
same,area with substrate EDLYFQS,0.0377
same,area with substrate EILYFQS,0.0321
same,area with substrate ELLYFQS,0.041
same,area with substrate EMLYFQS,0.0557
same,area with substrate EPLYFQS,0.0566
same,area with substrate EQLYFQS,0.0495
same,area with substrate ERLYFQS,0.0364
same,area with substrate ESLYFQS,0.0659
same,area with substrate EVLYFQS,0.0363
same,area with substrate EWLYFQS,0.0918
same,area with substrate EYLYFQS,0.0476
MGESLFKGPRDYNPISSSICHLTNESDGHTTSLYGKGFGPFIITNKHLFRRNNGTLVVQSLHGVFKVKDTTTLQQHLVDGRDMIIIRMPKDFPPFPQKLKFREPQREERICLVTTNFQTKSMSSMVSDTSCTFPSGDGIFWKHWIQTKDGQCGSPLVSTRDGFIVGIHSASNFTNTNNYFTSVPKNFMELLTNQEAQQWVSGWRLNADSVLWGGHKVFMVKPEEPFQPVKEATQL [I36K],area with substrate EALYFQS,0.028
same,area with substrate ECLYFQS,0.0377
same,area with substrate EELYFQS,0.0426
same,area with substrate EILYFQS,0.0739
same,area with substrate EKLYFQS,0.0479
same,area with substrate ERLYFQS,0.0662
same,area with substrate ESLYFQS,0.0451
same,area with substrate EWLYFQS,0.0428
MGESLFKGPRDYNPISSSICHLTNESDGHTTSLYGIGQGPFIITNKHLFRRNNGTLVVQSLHGVFKVKDTTTLQQHLVDGRDMIIIRMPKDFPPFPQKLKFREPQREERICLVTTNFQTKSMSSMVSDTSCTFPSGDGIFWKHWIQTKDGQCGSPLVSTRDGFIVGIHSASNFTNTNNYFTSVPKNFMELLTNQEAQQWVSGWRLNADSVLWGGHKVFMVKPEEPFQPVKEATQL [F38Q],area with substrate EALYFQS,0.112
same,area with substrate EDLYFQS,0.101
same,area with substrate EFLYFQS,0.105
same,area with substrate EGLYFQS,0.0437
same,area with substrate EHLYFQS,0.1
same,area with substrate EILYFQS,0.0811
same,area with substrate EKLYFQS,0.109
same,area with substrate ELLYFQS,0.0899
same,area with substrate EMLYFQS,0.108
same,area with substrate EPLYFQS,0.128
same,area with substrate EQLYFQS,0.115
same,area with substrate ERLYFQS,0.11
same,area with substrate ESLYFQS,0.107
same,area with substrate ETLYFQS,0.11
same,area with substrate EVLYFQS,0.0861
same,area with substrate EWLYFQS,0.0864
MGESLFKGPRDYNPISSSACHLTNESDGHTTSLYGIGFGPFIITNKHLFRRNNGTLVVQSLHGVFKVKDTTTLQQHLVDGRDMIIIRMPKDFPPFPQKLKFREPQREERICLVTTNFQTKSMSSMVSDTSCTFPSGDGIFWKHWIQTKDGQCGSPLVSTRDGFIVGIHSASNFTNTNNYFTSVPKNFMELLTNQEAQQWVSGWRLNADSVLWGGHKVFMVKPEEPFQPVKEATQL [I19A],area with substrate EALYFQS,0.09
same,area with substrate EDLYFQS,0.103
same,area with substrate EELYFQS,0.11
same,area with substrate EFLYFQS,0.0826
same,area with substrate EGLYFQS,0.0894
same,area with substrate EKLYFQS,0.0863
same,area with substrate EPLYFQS,0.112
same,area with substrate EQLYFQS,0.149
same,area with substrate ERLYFQS,0.0831
same,area with substrate ESLYFQS,0.0971
same,area with substrate ETLYFQS,0.0933
same,area with substrate EYLYFQS,0.0842
MGESLFKGPRDYNPISSSICHLTNESDGHTTSLYGIGFGPHIITNKHLFRRNNGTLVVQSLHGVFKVKDTTTLQQHLVDGRDMIIIRMPKDFPPFPQKLKFREPQREERICLVTTNFQTKSMSSMVSDTSCTFPSGDGIFWKHWIQTKDGQCGSPLVSTRDGFIVGIHSASNFTNTNNYFTSVPKNFMELLTNQEAQQWVSGWRLNADSVLWGGHKVFMVKPEEPFQPVKEATQL [F41H],area with substrate EALYFQS,0.103
same,area with substrate EFLYFQS,0.144
same,area with substrate EGLYFQS,0.0785
same,area with substrate EHLYFQS,0.092
same,area with substrate EILYFQS,0.0761
same,area with substrate EMLYFQS,0.103
same,area with substrate EQLYFQS,0.0901
same,area with substrate ESLYFQS,0.105
same,area with substrate ETLYFQS,0.1
same,area with substrate EVLYFQS,0.0887
same,area with substrate EWLYFQS,0.0943
same,area with substrate EYLYFQS,0.0882
MGESLFKGPRDYNPISSSICHLTNEYDGHTTSLYGIGFGPFIITNKHLFRRNNGTLVVQSLHGVFKVKDTTTLQQHLVDGRDMIIIRMPKDFPPFPQKLKFREPQREERICLVTTNFQTKSMSSMVSDTSCTFPSGDGIFWKHWIQTKDGQCGSPLVSTRDGFIVGIHSASNFTNTNNYFTSVPKNFMELLTNQEAQQWVSGWRLNADSVLWGGHKVFMVKPEEPFQPVKEATQL [S26Y],area with substrate EALYFQS,0.0711
same,area with substrate EDLYFQS,0.0942
same,area with substrate EELYFQS,0.085
same,area with substrate EGLYFQS,0.0776
same,area with substrate EILYFQS,0.0779
same,area with substrate EMLYFQS,0.105
same,area with substrate EQLYFQS,0.0819
same,area with substrate ERLYFQS,0.0831
same,area with substrate ESLYFQS,0.0739
same,area with substrate EVLYFQS,0.077
same,area with substrate EWLYFQS,0.0794
MGESLFKGPRDYNPTSSSICHLTNESDGHTTSLYGIGFGPFIITNKHLFRRNNGTLVVQSLHGVFKVKDTTTLQQHLVDGRDMIIIRMPKDFPPFPQKLKFREPQREERICLVTTNFQTKSMSSMVSDTSCTFPSGDGIFWKHWIQTKDGQCGSPLVSTRDGFIVGIHSASNFTNTNNYFTSVPKNFMELLTNQEAQQWVSGWRLNADSVLWGGHKVFMVKPEEPFQPVKEATQL [I15T],area with substrate EALYFQS,0.102
same,area with substrate ECLYFQS,0.105
same,area with substrate EFLYFQS,0.0874
same,area with substrate EGLYFQS,0.0971
same,area with substrate EHLYFQS,0.0908
same,area with substrate EILYFQS,0.109
same,area with substrate EKLYFQS,0.126
same,area with substrate ELLYFQS,0.102
same,area with substrate EMLYFQS,0.148
same,area with substrate EQLYFQS,0.113
same,area with substrate ERLYFQS,0.0985
same,area with substrate ESLYFQS,0.109
same,area with substrate EVLYFQS,0.0939
same,area with substrate EWLYFQS,0.0871
MGESLFKGPRDYNPISSSICHLTNESDGHPTSLYGIGFGPFIITNKHLFRRNNGTLVVQSLHGVFKVKDTTTLQQHLVDGRDMIIIRMPKDFPPFPQKLKFREPQREERICLVTTNFQTKSMSSMVSDTSCTFPSGDGIFWKHWIQTKDGQCGSPLVSTRDGFIVGIHSASNFTNTNNYFTSVPKNFMELLTNQEAQQWVSGWRLNADSVLWGGHKVFMVKPEEPFQPVKEATQL [T30P],area with substrate EALYFQS,0.0938
same,area with substrate ECLYFQS,0.0973
same,area with substrate EGLYFQS,0.0815
same,area with substrate EKLYFQS,0.109
same,area with substrate EPLYFQS,0.0777
same,area with substrate EQLYFQS,0.11
same,area with substrate ERLYFQS,0.0774
same,area with substrate ESLYFQS,0.0886
MGESLFKGPRDYNPISSSICHLTNESDGHITSLYGIGFGPFIITNKHLFRRNNGTLVVQSLHGVFKVKDTTTLQQHLVDGRDMIIIRMPKDFPPFPQKLKFREPQREERICLVTTNFQTKSMSSMVSDTSCTFPSGDGIFWKHWIQTKDGQCGSPLVSTRDGFIVGIHSASNFTNTNNYFTSVPKNFMELLTNQEAQQWVSGWRLNADSVLWGGHKVFMVKPEEPFQPVKEATQL [T30I],area with substrate EALYFQS,0.164
same,area with substrate EDLYFQS,0.139
same,area with substrate EILYFQS,0.0667
same,area with substrate EKLYFQS,0.0701
same,area with substrate EPLYFQS,0.0753
same,area with substrate EQLYFQS,0.127
same,area with substrate ERLYFQS,0.114
same,area with substrate ESLYFQS,0.108
same,area with substrate EVLYFQS,0.132
same,area with substrate EWLYFQS,0.101
MGESLFKGPRDYNPISSSICHLTNESDGHTTSLYGIGFGPFKITNKHLFRRNNGTLVVQSLHGVFKVKDTTTLQQHLVDGRDMIIIRMPKDFPPFPQKLKFREPQREERICLVTTNFQTKSMSSMVSDTSCTFPSGDGIFWKHWIQTKDGQCGSPLVSTRDGFIVGIHSASNFTNTNNYFTSVPKNFMELLTNQEAQQWVSGWRLNADSVLWGGHKVFMVKPEEPFQPVKEATQL [I42K],area with substrate EALYFQS,0.0529
same,area with substrate ECLYFQS,0.0492
same,area with substrate EFLYFQS,0.0384
same,area with substrate EGLYFQS,0.0504
same,area with substrate EHLYFQS,0.0484
same,area with substrate EILYFQS,0.0497
same,area with substrate EKLYFQS,0.0316
same,area with substrate ELLYFQS,0.0533
same,area with substrate EMLYFQS,0.0498
same,area with substrate EPLYFQS,0.0394
same,area with substrate EQLYFQS,0.046
same,area with substrate ERLYFQS,0.0522
same,area with substrate ESLYFQS,0.0441
same,area with substrate ETLYFQS,0.0507
same,area with substrate EVLYFQS,0.0514
same,area with substrate EWLYFQS,0.0387
same,area with substrate EYLYFQS,0.0374
